Source: PubChem BioAssay AID1362 (SRMLSC, 2008)
Values joined by “and” are separate entries in the source; they are usually repeats but may differ in a detail not shown here. Equal values may be shown once. Some of the results follow. These are further read-outs of the screen, such as a control signal, another cell line or another target. No call is given for them. Most of these compounds were active or inconclusive in the main read-out, so they are no random draw.

Experiment: growth inhibition of WT strain, primary screen, mitochondrial fusion inhibitor project, WT and mutant strains, chemical genetic (AID 1362); note: tested in S. cerevisiae
Settings: mitochondrial fusion phenotypic screen, at 10 µM

**Q.** With COCC(=O)Nc1nnc(-c2ccc(C(C)(C)C)cc2)s1 as the molecule, how does the inhibition read?
**A.** 57.9%

**Q.** With CN(C)C(=O)CSc1nnc(CCCCCNC(=O)OC(C)(C)C)o1 as the molecule, how does the inhibition read?
**A.** -2.8%

**Q.** With Cc1cccc2sc(N(CCCN(C)C)C(=O)c3sc4ccccc4c3Cl)nc12 as the molecule, how does the inhibition read?
**A.** 86%

**Q.** For Cc1ccc(C(C#N)c2ccc3c(C(F)(F)F)cc(C(F)(F)F)nc3n2)cc1 (stereo not drawn), which inhibition is on record?
**A.** 34.7%

**Q.** For CC1CCCN(C(=O)Cc2cn(Cc3cccc(Cl)c3)c3ccccc23)C1 (stereo not drawn), which inhibition is on record?
**A.** 27.1%

**Q.** For Oc1ccccc1-c1nc(/C=C/c2ccccc2)nn1-c1ccccc1, which inhibition is on record?
**A.** -5.99%

**Q.** With CC(=O)Nc1ccccc1/C=C/c1ccc2c(C)cc(C)c(O)c2n1 as the molecule, how does the inhibition read?
**A.** 73.4%

**Q.** Which inhibition does the source give for C/C(=N\O)c1ccc2c3c([nH]c2c1)CCCC3 here?
**A.** -0.82%

**Q.** Which inhibition does the source give for CCN(CC(=O)Nc1c(C(=O)OC)[nH]c2ccc(Cl)cc12)c1ccc2c(c1)OCO2 here?
**A.** 42.7%

**Q.** Which inhibition does the source give for O=C(c1cc2ccccc2o1)N(C1CC1)C1(C(=O)Nc2ccccc2)CCCC1 here?
**A.** 42.3%

**Q.** For COc1ccc(C2c3sc(=O)[nH]c3SC3C4CCC(C4)C23)cc1 (stereo not drawn), which inhibition is on record?
**A.** 34.8%

**Q.** With CC(=O)N1CCC(O)(c2cccc(C(F)(F)F)c2)CC1 as the molecule, how does the inhibition read?
**A.** 6.45%

**Q.** For Cc1cc(OCc2cccc(Cl)c2)c(C)cc1CN1CCOCC1, which inhibition is on record?
**A.** 69.1%

**Q.** Which inhibition does the source give for O=C1Nc2ccc(Cl)cc2C12Nc1ccccc1-c1nnc(SCc3ccccc3F)nc1O2 (stereo not drawn) here?
**A.** 18.3%

**Q.** For O=C(Nc1ccc(N2CCCC2)c(Cl)c1)c1ccc([N+](=O)[O-])o1, which inhibition is on record?
**A.** 58%

**Q.** For CC1CCCCN1c1nc(-c2ccncc2)nc2ccccc12 (stereo not drawn), which inhibition is on record?
**A.** 44.9%

**Q.** For CCn1c(Cn2nnc(-c3ccccc3)n2)nnc1SCc1ccc(Cl)c(Cl)c1, which inhibition is on record?
**A.** 53.1%

**Q.** Which inhibition does the source give for C=C(C)CNC(=S)N/N=C1\CCCCc2ccccc21 here?
**A.** 55.3%

**Q.** For Clc1ccc(C(c2nnnn2C2CCCCC2)N(Cc2cccnc2)Cc2ccco2)cc1 (stereo not drawn), which inhibition is on record?
**A.** 2.87%

**Q.** With CNC(=S)N/N=C/c1cn(Cc2c(F)cccc2Cl)c2ccccc12 as the molecule, how does the inhibition read?
**A.** 54.9%

**Q.** With O=C(c1ccccc1Cl)N1N=C(c2ccc(Br)cc2)CC1c1nc2ccccc2[nH]1 (stereo not drawn) as the molecule, how does the inhibition read?
**A.** 65.2%

**Q.** Which inhibition does the source give for O=C(NC1=NCCS1)c1cccc2ccccc12 here?
**A.** 79.8%

**Q.** With COc1cccc(Nc2nc(NCCO)c3ccccc3n2)c1 as the molecule, how does the inhibition read?
**A.** 54.9%

**Q.** With N#Cc1nc(COc2ccc(-c3ccccc3)cc2)oc1NCCCN1CCOCC1 as the molecule, how does the inhibition read?
**A.** 58.5%

**Q.** Which inhibition does the source give for OC(CNCCC1C=Nc2ccccc21)Cn1c2ccc(Cl)cc2c2cc(Cl)ccc21 (stereo not drawn) here?
**A.** 97%

**Q.** With CS(=O)(=O)N1CCc2cc(C(=O)N3CCOCC3)ccc21 as the molecule, how does the inhibition read?
**A.** 8.53%

**Q.** With Cc1cccc(NC(=S)N=Nc2c(O)n(CN3CCOCC3)c3ccccc23)c1C as the molecule, how does the inhibition read?
**A.** 43.6%

**Q.** Which inhibition does the source give for O=C(CN1CCN(c2ccccc2)CC1)Nc1ccc(Oc2ccccc2)cc1 here?
**A.** 36.1%

**Q.** Which inhibition does the source give for O=C(Nc1nc(SCc2ccc(F)cc2)ns1)c1ccco1 here?
**A.** 52.1%

**Q.** Which inhibition does the source give for Cc1ccc(C(=O)NNC(=S)NC(=O)COc2ccccc2)cc1 here?
**A.** 73.2%

**Q.** With Cc1sc2cc3c(c(C(=O)c4ccccc4)[n+]2c1C)-c1cccc2cccc-3c12 as the molecule, how does the inhibition read?
**A.** 65.7%

**Q.** With Cc1oc(-c2cccc3ccccc23)nc1CN1CCN(c2ncnc3ccccc23)CC1 as the molecule, how does the inhibition read?
**A.** 34.3%

**Q.** For CC1CN(c2oc(Cc3cccc4ccccc34)nc2C#N)CC(C)O1 (stereo not drawn), which inhibition is on record?
**A.** -0.29%

**Q.** For O=C(c1ccccc1)c1cc(Cl)ccc1N1C(=O)C=CC1=O, which inhibition is on record?
**A.** 17.4%

**Q.** With CCOc1ccc(NC(=S)N(CCCN2CCCC2)Cc2cccn2Cc2ccc(Cl)cc2)cc1 as the molecule, how does the inhibition read?
**A.** 21.4%

**Q.** Which inhibition does the source give for CC(C)CCn1c(=O)c2ccccc2c2ccccc2c1=O here?
**A.** 33.9%

**Q.** With Cc1cccc(-n2c(=O)c3c(n4cnnc24)-c2ccccc2CC32CCCCC2)c1 as the molecule, how does the inhibition read?
**A.** 11.6%

**Q.** For COc1ccc(N(C(=O)c2ccco2)S(=O)(=O)c2cc(Cl)c(Cl)cc2Cl)cc1, which inhibition is on record?
**A.** 25.8%

**Q.** With Cc1ccc(-c2csc(NC(=O)c3ccc(-c4ccccc4)cc3)n2)o1 as the molecule, how does the inhibition read?
**A.** 75.5%

**Q.** Which inhibition does the source give for O=c1cc2c(nn1Cc1cccc(Cl)c1)-c1ccccc1CC2 here?
**A.** 57.2%

**Q.** Which inhibition does the source give for CCCOc1ccc(-c2nc(OCC)c3ccccc3n2)cc1 here?
**A.** 22.8%

**Q.** With CCCCCC[n+]1c(-c2ccccc2)csc1Nc1ccccc1 as the molecule, how does the inhibition read?
**A.** 9.43%

**Q.** Which inhibition does the source give for COc1ccc(-c2csc(NC(=O)c3ccccc3NS(=O)(=O)c3ccc(F)c(F)c3)n2)cc1 here?
**A.** 85.4%

**Q.** For COc1cc2c(cc1NC(=O)Nc1ccc(C)cc1)oc1ccccc12, which inhibition is on record?
**A.** -5.51%

**Q.** For CCN(C(=O)c1cnc(N2CCN(c3ncccn3)CC2)c2ccccc12)c1cccc(Cl)c1, which inhibition is on record?
**A.** 29.9%

**Q.** Which inhibition does the source give for COc1cc(OC)nc(Oc2ccccc2C(=O)Oc2ccc(Cl)cc2)n1 here?
**A.** 27.7%

**Q.** Which inhibition does the source give for COc1cc(Cl)c(C)cc1NC(=O)CN(C)Cc1cccc(OC)c1OC here?
**A.** 29.5%

**Q.** With S=c1[nH]nc(COc2cccc(Cl)c2)n1Cc1ccccc1 as the molecule, how does the inhibition read?
**A.** 40.8%

**Q.** Which inhibition does the source give for Cc1ccccc1OCc1n(CC(=O)OC2CC(C)CCC2C(C)C)c2ccccc2[n+]1C (stereo not drawn) here?
**A.** 31.1% and 21.5%

**Q.** Which inhibition does the source give for Cc1cccc(N2CCN(C(=O)c3cc4n(n3)C(C(F)(F)F)CC(c3ccco3)N4)CC2)c1C (stereo not drawn) here?
**A.** 33.2%

**Q.** With CC(=O)N(CCC(Cc1ccccc1)c1ccc2c(c1)OCO2)Cc1ccccc1F (stereo not drawn) as the molecule, how does the inhibition read?
**A.** 57%

**Q.** Which inhibition does the source give for Cc1ccc(S(=O)(=O)c2c(C)nn(C(C)(C)C)c2OC(=O)CC(C)C)cc1 here?
**A.** 17.4%

**Q.** With COc1ccccc1-c1cc(C(F)(F)F)nc(NCc2ccco2)n1 as the molecule, how does the inhibition read?
**A.** 54.6%

**Q.** For CCc1ccc2ncc(S(=O)(=O)c3ccc(C)c(C)c3)c(N3CCCC3)c2c1, which inhibition is on record?
**A.** -0.88%

**Q.** Which inhibition does the source give for Cc1cc(C)c2nc(N3CCCC(C(=O)N4CCN(c5ncccn5)CC4)C3)sc2c1 (stereo not drawn) here?
**A.** 57.5%

**Q.** With O=[N+]([O-])c1ccc(-c2nc(-c3cccs3)c(-c3cccs3)[nH]2)cc1 as the molecule, how does the inhibition read?
**A.** 61%

**Q.** For O=C1NC(=S)S/C1=C\c1ccc(SCc2ccccc2)o1, which inhibition is on record?
**A.** 81.4%

**Q.** With c1ccc(Nc2cccc(Nc3ccccc3)c2)cc1 as the molecule, how does the inhibition read?
**A.** 35.3%

**Q.** For COc1cc(/C=N/NC(=Nc2ccc(C)cc2)c2nc3ccccc3s2)ccc1O, which inhibition is on record?
**A.** 33%

**Q.** With O=C(COC(=O)c1cc(-c2cccc(Br)c2)nc2ccccc12)NCC1CCCO1 (stereo not drawn) as the molecule, how does the inhibition read?
**A.** 19.2%

**Q.** For CC1C/C(=N\NC(=S)NC(C)C)CC(C)(C)C1 (stereo not drawn), which inhibition is on record?
**A.** 64.1%

**Q.** For COc1cc(/C=C(\C#N)c2nc3ccccc3s2)cc([N+](=O)[O-])c1O, which inhibition is on record?
**A.** 37.2%

**Q.** With Cc1ccc(NC(=O)c2cc(N3C(=O)C=CC3=O)ccc2N2CCOCC2)cc1Cl as the molecule, how does the inhibition read?
**A.** 61.9%

**Q.** With CCOC(=O)c1nc(Nc2ccc(Nc3ccccc3)cc2)c2ccccc2n1 as the molecule, how does the inhibition read?
**A.** 51.6%

**Q.** With COc1ccccc1N=Nc1nc(-c2ccccc2)c(-c2ccccc2)[nH]1 as the molecule, how does the inhibition read?
**A.** 14.1%

**Q.** With COC(=O)c1c(NC(=O)c2ccccc2)sc(Cc2ccccc2)c1C as the molecule, how does the inhibition read?
**A.** 28.9%

**Q.** Which inhibition does the source give for CC1CC1C(=O)OCC(=O)NCc1ccc(Cl)cc1Cl (stereo not drawn) here?
**A.** -1.28%

**Q.** For O=C(Nc1ccc(Cl)c(Cl)c1)O/N=C/c1ccncc1, which inhibition is on record?
**A.** 72.1%
